Reference: PubChem BioAssay AID686979 (National Center for Advancing Translational Sciences (NCATS), 2013)
Several values for one entry are separate records, joined by “and”; a condition that tells them apart may be missing. Equal entries are not always repeated. Screen size: about 420,000 compounds; about 50,000 (12%) were called active. Inconclusive results, whose numbers are uncertain, are shown with a selection of clear calls. Calls follow the shape of the dose curve; as a rule, active = well fitted inhibition curve with a large enough effect; inconclusive = small, poorly fitted or top-dose-only effect; inactive = flat fitted curve, though single readings scatter. Potencies beside an inconclusive call are fits to weak or partial responses and may not hold up.

assay: qHTS for Inhibitors of human tyrosyl-DNA phosphodiesterase 1 (TDP1): qHTS in cells in presence of CPT; conditions: chicken DT40 Tdp1-/-;hTDP1 cells + 20 nM CPT, ATP luminescence, 48 h; activity change, negative = growth inhibition: at 46.2 µM (top of the series); also: nearly all actives have a fitted effect of over 55% in size
Summary of the method: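 Cell growth measured by CellTiter-Glo luminescence after a minimum 48 h, 37 C compound exposure with 20 nM CPT in Tdp1-knockout DT40 cells stably expressing hTDP1, seeded 400/well; qHTS titration format.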
% is scaled to controls: 0 for no effect and ±100 for the full control effect; potency is read from the fitted curve at half-maximal effect; tags tell the direction and shape of the fitted curve.

Row | Structure (SMILES) | activity change, negative = growth inhibition | Potency
1 | Cc1ccccc1C(=O)NNC(=O)CSc1nc(-c2ccccc2)cc(=O)[nH]1 | inactive: -9.91% | –
2 | Cc1cccc(NC(=O)COc2cccc3c2CCN(Cc2ccccc2)C3=O)c1C | – | inconclusive: 16.4 µM [inhibitor, single point]
3 | O=C(NCCCN1CCOCC1)C1CCCN(S(=O)(=O)N2CCCCC2)C1 (stereo not given) | inactive: -7.98% | –
4 | CCn1c(SCC(=O)Nc2cc(C)ccc2F)nnc1-c1ccccc1O | – | inconclusive: 23.1 µM [inhibitor, single point]
5 | Clc1ccc(C(Cn2ccnc2)OCc2c(Cl)cccc2Cl)c(Cl)c1 (stereo not given) | – | inconclusive: 14.3 µM [inhibitor, single point] and inconclusive: 29.1 µM [inhibitor, single point]
6 | N#Cc1c(SCC(=O)Nc2nccs2)sc2c(O)cc(=O)[nH]c12 | inactive: -3.97% | –
7 | COc1ccc(CC(=O)N2CC(=O)Nc3ccc(F)cc3C2c2ccccc2)cc1 (stereo not given) | – | inconclusive: 25.9 µM [inhibitor, single point]
8 | CCCCN(C(=O)c1ccccc1Br)C(c1ccc(OC)cc1)c1nc2ccccc2[nH]1 (stereo not given) | – | active: 16.4 µM
9 | Cc1cc(OCC(=O)Nc2ccncc2)c(C)cc1Br | – | inconclusive: 8.2 µM [inhibitor, partial curve]
10 | COc1ccc(OCC(=O)N2CCC3(CC2)CC(=O)c2ccccc2O3)cc1 | inactive: -23.6% | –
11 | COc1ccc(Oc2nc3c(C)cccn3c(=O)c2/C=C(\C#N)C(N)=O)cc1 | – | inconclusive: 18.4 µM [inhibitor, single point]
12 | O=C(NN1C(=O)c2ccccc2NC1c1cccnc1)c1ccc([N+](=O)[O-])cc1 (stereo not given) | – | inconclusive: 6.51 µM [inhibitor, single point]
13 | COc1ccc(/C=C/c2cnc3ccccc3n2)cc1OC | – | inconclusive: 22.4 µM [inhibitor, single point]
14 | Cc1ccnc(NC(=O)COc2ccc(Cl)cc2)n1 | inactive: -5.19% | –
15 | N#CCCn1c(=O)c(-c2ccc(F)cc2)nc2cnc(N3CCNCC3)nc21 | – | inconclusive: 25.9 µM [inhibitor, single point]
16 | CC(=O)c1ccc(NC(=O)CCc2nnc3ccc(NCc4ccco4)nn23)cc1 | – | inconclusive: 16.4 µM [inhibitor, single point]
17 | Cc1cc(Cl)ccc1C(O)c1ncc(-c2cccc(F)c2)[nH]1 (stereo not given) | – | inconclusive: 20.6 µM [inhibitor, single point]
18 | CCN(CC)c1ccc(/C=N/N(c2ccccc2)c2ccccc2)c(O)c1 | – | inconclusive: 29.1 µM [inhibitor, single point]
19 | COc1ccc(C2(CNC(=O)c3cc([N+](=O)[O-])cc([N+](=O)[O-])c3)CCCC2)cc1OC | – | active: 20.6 µM
20 | COc1cc(NC2c3ccccc3C(=O)N2Cc2ccccc2Cl)cc(OC)c1 (stereo not given) | – | inconclusive: 29.1 µM [inhibitor, single point]
21 | Cc1cc(C)cc(C(=O)NC(CC(N)=O)c2ccc(NC3CCCCCC3)c([N+](=O)[O-])c2)c1 (stereo not given) | – | inconclusive: 11.6 µM [inhibitor, partial curve]
22 | COc1cc(CNCc2ccccn2)ccc1OCc1ccc(Cl)cc1 | – | inconclusive: 29.1 µM [inhibitor, single point]
23 | COc1ccccc1NC(=O)c1cc([N+](=O)[O-])ccc1N1CCOCC1 | inactive: -10.8% | –
24 | Cc1ccc(O)c(CCc2ccc(O)cc2)n1 | inactive: 3.3% | –

Row | Structure (SMILES) | activity change, negative = growth inhibition | Potency
25 | CCOc1ccccc1NC(=O)CCS(=O)(=O)c1ccc2c(c1)CCN2C(C)=O | – | inconclusive: 29.1 µM [inhibitor, single point]
26 | COc1ccc(S(=O)CC(=O)Nc2ccc(Cl)cc2Cl)cc1 (stereo not given) | inactive: -4.56% | –
27 | Cc1ccc(-n2ncc(C(=O)N3CCc4ccccc4C3)c2NC(=O)c2ccco2)cc1C | inactive: -11.1% | –
28 | CCOc1ccc(-c2nnn(CC(=O)NCc3ccco3)n2)cc1 | – | inconclusive: 7.31 µM [inhibitor, partial curve]
29 | Cc1ccccc1CNC(=O)Cn1c(=O)c2cccn2c2cccnc21 | inactive: -1.67% | –
30 | COc1ccccc1CNC(=O)c1ccc(N2CCCC2)c(NC(=O)NCc2ccc(C)cc2)c1 | – | inconclusive: 16.4 µM [inhibitor, single point]
31 | Cc1c(C(=O)c2ccc(Cl)cc2Cl)cnc2cc3c(cc12)OCO3 | – | inconclusive: 25.9 µM [inhibitor, single point]
32 | CN1OC[C@@H]2CN(S(=O)(=O)c3cccc4ccccc34)[C@H](c3ccc(-c4ccccc4)cc3)C[C@@H]21 | – | inconclusive: 20.6 µM [inhibitor, single point]
33 | O=C(CN1C(=O)COc2ccccc21)N1CCc2ccccc21 | – | inconclusive: 18.4 µM [inhibitor, single point]
34 | CCOC(=O)c1c(-c2ccc(OC)cc2)csc1/N=C/C1=C(O)CCCC1=O | inactive: -14.8% | –
35 | CC(NC(=O)C12CC3CC(CC(C3)C1)C2)C(=O)N/N=C/C1=C(N2CCOCC2)C(=C\c2ccccc2)/CC1 (stereo not given) | – | inconclusive: 23.1 µM [inhibitor, single point]
36 | Cc1nc(C(F)(F)F)ccc1C(=O)N1CCC1(C)C(=O)NS(=O)(=O)c1ccccc1 (stereo not given) | inactive: -7.92% | –
37 | COc1ccc(-c2ccc3c(c2)C2CC3CCN2Cc2ccc(OC(F)(F)F)cc2)cc1 (stereo not given) | – | inconclusive: 29.1 µM [inhibitor, partial curve, poor fit]
38 | Cc1ccc(NC(=O)COc2cccc(C)c2C)cc1S(=O)(=O)N1CCCCCC1 | – | inconclusive: 20.6 µM [inhibitor, single point]
39 | C=CCSc1ccc(S(=O)(=O)N2CCN(C)CC2)cn1 | inactive: 0.991% | –
40 | CC(C)CCn1c(=O)c(C(=O)N/N=C/c2cccc(F)c2)c(O)c2ccccc21 | – | active: 1.3 µM
41 | COC(=O)c1ccccc1NC(=O)c1ccc(CN2CC(=O)N3CCCCC3C2=O)cc1 (stereo not given) | – | inconclusive: 32.6 µM [inhibitor, partial curve, poor fit]
42 | Cc1ncc(CN2CCCCC2C(=O)Nc2ccc(Oc3ccccc3)nc2)cn1 (stereo not given) | inactive: 6.12% | –
43 | O=C(/C=C/c1ccccc1[N+](=O)[O-])Nc1cccnc1 | inactive: -1.33% | –
44 | O=C(COC(=O)Cc1cccc(C(F)(F)F)c1)NCc1ccco1 | – | inconclusive: 29.1 µM [inhibitor, single point]
45 | Cc1nc2cnc(N(C)C)nc2n(C2CC2)c1=O | inactive: -12.2% | –
46 | Cc1ccc(NC(=O)c2ccc(S(=O)(=O)NCc3cccnc3)cc2)cc1C | – | inconclusive: 10.3 µM [inhibitor, single point]
47 | Cc1ccc(C)c(Cn2c(=O)n(CCC(=O)NCc3ccco3)c(=O)c3sccc32)c1 | – | inconclusive: 20.6 µM [inhibitor, single point]
48 | Cc1ccc(-n2c(C)cc(C(=O)CSc3nnnn3C)c2C)cc1 | – | active: 18.4 µM

Row | Structure (SMILES) | activity change, negative = growth inhibition | Potency
49 | Cn1ccc2c(-c3cccc(C=O)c3F)cc3c(c21)C1CCC3C1 (stereo not given) | – | inconclusive: 18.4 µM [inhibitor, single point]
50 | CCCCNC(=S)Nc1ccc(C(F)(F)F)cc1 | – | inconclusive: 29.1 µM [inhibitor, single point]
51 | COc1ccccc1NC(=O)CSc1nc(=O)n(CCN2CCOCC2)c2c1CCC2 | inactive: 1.83% | –
52 | Cc1c(C(=O)NC(=S)Nc2ccc(NC(=O)c3cccs3)cc2)cccc1[N+](=O)[O-] | – | inconclusive: 29.1 µM [inhibitor, single point]
53 | Cc1ccc(S(=O)(=O)CCC(=O)N(CCN2CCOCC2)c2nc3ccccc3s2)cc1 | – | active: 20.6 µM
54 | CC(=O)C[C@@H]1OC[C@H](Cc2ccccc2)N1S(=O)(=O)c1ccc(C)cc1 | – | inconclusive: 29.1 µM [inhibitor, single point]
55 | O=C(NC1CCS(=O)(=O)C1)Oc1ccccc1 (stereo not given) | – | inconclusive: 29.1 µM [inhibitor, single point]
56 | Cn1c(CCc2ccccc2)n[nH]c1=S | inactive: 1.2% | –
57 | COc1ccccc1N1CCN(CC(O)COc2ccc(Cl)c(C)c2)CC1 (stereo not given) | – | inconclusive: 29.1 µM [inhibitor, single point]
58 | Cc1c(CCOC(=O)CC23CC4CC(CC(C4)C2)C3)sc[n+]1Cc1ccccc1 | – | active: 2.06 µM
59 | CCOC(=O)c1cc(S(=O)(=O)Nc2ccccc2)[nH]n1 | inactive: -15.3% | –
60 | O=C1CCCc2oc3c(cc(NS(=O)(=O)c4ccc5c6c(cccc46)C(=O)N5)c4ccccc43)c21 | – | inconclusive: 32.6 µM [inhibitor, single point]
61 | CC(=O)COc1ccc2c(-c3cccc([N+](=O)[O-])c3)cc(=O)oc2c1 | – | inconclusive: 10.3 µM [inhibitor, partial curve]
62 | CC(C)(C)OC(=O)N[C@H](C(=O)OC(C)(C)C)c1ccccc1 | – | inconclusive: 2.31 µM [inhibitor, single point]
63 | O=C(NCCNC(=O)c1ccco1)c1ccco1 | inactive: 7.52% | –
64 | CC(C)(C)c1ccc(S(=O)(=O)NC(=O)C2(C)CCN2C(=O)CC2CC2)cc1 (stereo not given) | inactive: -15.6% | –
65 | CCC(C)NC(=O)c1c2c(nc3ccccc13)C(=O)N(C1CCCCC1)C2 (stereo not given) | inactive: -13.2% | –
66 | CCS(=O)(=O)n1nc(-c2ccc(Cl)cc2)nc1SCc1ccccc1 | – | inconclusive: 20.6 µM [inhibitor, single point]
67 | CC(=O)C1=C(C)NC(SCc2cccc([N+](=O)[O-])c2)=C(C#N)C1c1ccco1 (stereo not given) | – | inconclusive: 25.9 µM [inhibitor, single point]
68 | Cc1cccc(N2CCN(C(=O)NCc3ccc(Cl)cc3)CC2)c1 | – | inconclusive: 20.6 µM [inhibitor, single point]
69 | O=C(CN1CCOCC1)N/N=C/c1cc2ccccc2nc1Cl | – | inconclusive: 20.6 µM [inhibitor, single point]
70 | COc1ccc(-c2c(C#Cc3ccsc3)c3cc(-c4ccc(CN5CCOCC5)cc4)ccc3n2C)cc1 | – | inconclusive: 18.4 µM [inhibitor, single point]
